Test results taken from PubChem BioAssay AID1159614 (National Center for Advancing Translational Sciences (NCATS), 2016).
Hit rate of the full screen: of about 45,000 compounds, about 65 (0.1%) were called active. Calls follow the shape of the dose curve; as a rule, active = well fitted activation curve with a large enough effect; inconclusive = small, poorly fitted or top-dose-only effect; inactive = no such curve, though single readings can be large or run the other way. Some of the results follow.

target: Galactocerebrosidase (Homo sapiens) (UniProt P54803); assay: A Novel Cell-Based Assay to Identify Small Molecules for B -Galactocerebrosidase; details: 145M-Twi-hGALC-G270D cells (Twitcher mouse brain line with human GALC G270D), HMU-beta-Gal fluorescence, 48 h; series mostly up to 57.5 µM; activation: at the top concentration; also: 0% is about no effect; nearly all actives have a fitted effect of over 65% in size
How it was run: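 Brain-derived Twitcher mouse 145M-Twi cells stably expressing human GALC-G270D or wild-type GALC, treated live, then residual GALC activity read by fluorescence of HMU-b-Gal substrate (0.1 mM final) in citrate-phosphate buffer pH 5.2 with sodium taurocholate. Signal increase indicates enhancement.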

Sequence of UniProt P54803 (P54803 whole entry, looked up): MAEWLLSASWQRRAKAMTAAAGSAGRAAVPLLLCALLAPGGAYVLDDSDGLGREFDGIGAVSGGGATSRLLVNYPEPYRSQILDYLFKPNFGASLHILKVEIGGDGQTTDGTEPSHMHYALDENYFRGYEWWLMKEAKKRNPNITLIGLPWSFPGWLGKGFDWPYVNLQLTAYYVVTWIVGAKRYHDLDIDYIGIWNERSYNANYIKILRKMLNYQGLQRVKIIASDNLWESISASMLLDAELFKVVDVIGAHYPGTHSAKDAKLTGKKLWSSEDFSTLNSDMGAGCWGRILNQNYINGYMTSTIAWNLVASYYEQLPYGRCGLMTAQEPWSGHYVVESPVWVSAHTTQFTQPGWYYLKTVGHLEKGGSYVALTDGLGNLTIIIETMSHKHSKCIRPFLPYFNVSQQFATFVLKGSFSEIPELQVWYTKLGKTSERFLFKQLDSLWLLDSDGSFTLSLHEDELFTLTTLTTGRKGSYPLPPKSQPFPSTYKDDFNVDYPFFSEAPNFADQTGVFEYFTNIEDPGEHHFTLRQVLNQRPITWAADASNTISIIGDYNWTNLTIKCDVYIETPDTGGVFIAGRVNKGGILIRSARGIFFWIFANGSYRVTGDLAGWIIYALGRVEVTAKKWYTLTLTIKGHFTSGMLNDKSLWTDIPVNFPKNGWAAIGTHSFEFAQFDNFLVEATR

activation, inactive:
CCOC(=O)c1c(NC(=O)c2ccc(S(=O)(=O)N(CC(C)C)CC(C)C)cc2)sc2c1CCN(C(=O)OCC)C2 -23.4%
COc1ccc(Cl)cc1NC(=O)c1sc2nc3n(c(=O)c2c1C)CCC3 -21.7%
COc1ccc(NC(=O)CSc2nnc(-c3nonc3NC(C)=O)n2-c2ccccc2)cc1 -3.7%
CCc1ccc(CN(Cc2cn[nH]c2-c2ccc(OC)cc2)C(=O)Nc2cc(Cl)ccc2OC)cc1 -9.69%
COC(=O)c1c(NC(=O)CCCOc2cccc(C)c2)sc2c1C(C(=O)OC)CC2 (stereo not drawn) -8.22%
CCN(CC)C(=O)Cn1c(=O)n(Cc2ccc(C(=O)NCCc3ccc(OC)c(OC)c3)cc2)c(=O)c2ccccc21 -2.91%
CCOC(=O)C1=C(C)N=C2SCCC(=O)N2C1c1ccc(OCc2ccccc2)cc1 (stereo not drawn) -21.9%
COc1ccc(S(=O)(=O)NCCc2csc(-c3ccc(F)cc3)n2)cc1F -12.8%
CCCCN(CCCNC(=O)c1cc(Nc2ccc(OC)c(OC)c2)nc2ccccc12)Cc1ccccc1 -7.98%
Cc1ccc(-n2ncc(C(=O)NCc3ccco3)c2C2CCN(C(=O)OC(C)(C)C)CC2)c(C)c1 -14.2%
CC(=O)c1ccc(N2C(=O)N(CC(=O)c3ccc(F)cc3)c3ccccc3S2(=O)=O)cc1 5.9%
Cc1ccc(-n2ncc3c(NC4CCCCCC4)ncnc32)cc1Cl -19.1%
COc1ccc(NC(=O)CSC2=Nc3ccccc3C3=NC(CCC(=O)NC4CCCCC4)C(=O)N23)cc1 (stereo not drawn) -10.9%
CCCS(=O)(=O)N1CC(=O)N(c2ccc(Cl)cc2C)C(C)(C(=O)NC2CCCC2)C1 (stereo not drawn) 7.92%
COc1cc2nc(NC(=O)c3ccc(S(=O)(=O)N4CCOCC4)cc3)sc2cc1OC -9.12%
O=C(CSCc1ccccc1Cl)N1CCN(c2ccc(Cl)cc2)CC1 -11.8%
COc1c(C)cccc1C(=O)Nc1cccc2ccc(C)nc12 -4.1%
CC(=O)c1cccc(NC(=O)C2CCN(S(=O)(=O)c3ccc4c(c3)oc(=O)n4C)CC2)c1 -15.4%
N[C@@H](CSCCCO)C(=O)O -11.8% [at 23.8 µM]
CCOC(=O)c1cccc(NC(=O)CCn2c(-c3ccc(F)cc3)cc(C(=O)OCC)c2C)c1 -11.9%
Cc1cccc(NC(=O)N2CC(=O)Nc3sc4c(c3C2c2ccccc2)CCCC4)c1C (stereo not drawn) -22%
Cc1ccc(C(=O)c2cn(CC(=O)Nc3ccc(C)cc3Cl)c3nc(C)ccc3c2=O)cc1 -11.8%
Cc1ccccc1C1CC(=O)Nc2ccc3ccccc3c21 (stereo not drawn) -2.12%
CCOC(=O)C1CCN(C(=O)c2ccc(-n3ccc4ccccc43)s2)CC1 -21.9%
COc1ccc(Cn2ccn(Cc3cccc(OC)c3)c(=O)c2=O)cc1 -5.5%
Cc1cc(C)cc(-n2c(-c3ccccc3)c(C)n3c4c(=O)n(C)c(=O)n(C)c4nc23)c1 -10.5%
Cc1cn2c(=O)cc(COC(=O)c3ccc(NC(=O)COc4ccccc4F)cc3)nc2s1 -7.01%
CCOc1ccccc1OCCCn1c(-c2ccc(Cl)cc2)nc2ccccc2c1=O -11.4%
Cc1ccc(Cl)cc1N1CCN(C(=O)c2ccc3c(c2)N(Cc2ccc(F)cc2)CCS3)CC1 -15.4%
CCOc1cc(CNC(=O)c2ccc3c(c2)NC(=O)C2CCCCN32)cc(OCC)c1OCC (stereo not drawn) -23.5%
CCOC(=O)c1[nH]c(C)c(CCC(=O)Nc2cc(C)ccc2OC)c1C -10.7%
COc1cc(C(=O)NCC(c2cccs2)S(=O)(=O)c2cccs2)cc(OC)c1OC (stereo not drawn) -9.17%
CCc1ccccc1NC(=O)c1cnc(N2CCCCC2)c2ccccc12 -6.3%
Cc1cc(=O)n(CC(=O)N2CCN(c3ccccc3F)CC2)c2c1c(C)nn2C -17.4%
CCOc1ccc(CCNC(=O)Cn2nc(CC)n3c(cc4ccccc43)c2=O)cc1 -10.6%
O=C(CCn1c(=O)c2cccn2c2cccnc21)NCc1ccc(F)cc1 -16.3%
Fc1ccc(-c2noc3ncnc(NCc4ccc(Cl)cc4)c23)cc1 3.59%
CN(Cc1ccccc1)C(=O)c1ccc2c(c1)N(Cc1ccccc1Cl)C(=O)c1ccccc1S2 -5.42%
Cc1ccccc1CN1CCC(CNC(=O)c2c(C)oc3ncnc(N4CCCCC4)c23)CC1 -5.88%
CCN1C(=O)c2ccccc2S(=O)c2ccc(C(=O)N3CCN(c4cc(Cl)ccc4C)CC3)cc21 (stereo not drawn) -7.49%
CCC(Sc1nc(-c2ccccc2F)nc2c1Cc1c(CO)cnc(C)c1O2)C(=O)Nc1cc(C)ccc1C (stereo not drawn) -11.6%
CCOc1ccc(CCNC(=O)C2=C(C)C(=O)OC23CCCCC3)cc1 -14.5%
COc1ccc(-c2cc(C(C)=O)c(C)n2CCC(=O)Nc2cc(Cl)ccc2C)cc1 12.3%
COc1ccc(C(=O)NC2(C(F)(F)F)C(=O)Nc3c2c(=O)[nH]c(=O)n3CCc2ccc(OC)c(OC)c2)cc1 (stereo not drawn) -19.7%
CCOC(=O)C1CCN(S(=O)(=O)c2ccc3c(c2)N(C)C(=O)CC(=O)N3C)CC1 -9.24%
Nc1ccc([N+](=O)[O-])c(C(F)(F)F)c1 -8.96%
COc1cc(C2CC(=O)Oc3c2c(=O)n(C)c2ccccc32)ccc1O (stereo not drawn) -18.4%
Cc1cc(C)c2oc(-c3cccc(NC(=O)COc4ccc([N+](=O)[O-])cc4)c3)nc2c1 -28%
Cc1ccc(NC(=O)Cn2c(=O)n(CC3CCCO3)c(=O)c3ccccc32)cc1 (stereo not drawn) 12.7%
Cc1ccc(Cl)cc1N1CCN(C(=O)c2ccc(CS(=O)(=O)c3ccccc3C)o2)CC1 -14.8%
O=C(COc1ccccc1)Nc1ccc2nc(SCCOc3ccccc3)sc2c1 -18.7%
CCOC(=O)c1c(C)[nH]c(C)c1S(=O)(=O)N(C)CC(=O)Nc1ccc(C)cc1C -9.46%
CCCn1cnc2c1c(=O)n(CCCCC(C)=O)c(=O)n2C -14.8%
Cc1nnc(N2CCCC(C(=O)Nc3cc(F)ccc3F)C2)c2nn(-c3ccccc3)c(C)c12 (stereo not drawn) -7.44%
CCCN1CCN(c2ncnc3sc(C(=O)Nc4ccc(OC(F)(F)F)cc4)c(C)c23)CC1 -21.9%
CC1CCN(c2nc3ccccc3nc2SCC(=O)Nc2ccccc2C(C)C)CC1 -18.8%
O=C(NC1(C(F)(F)F)N=C(c2ccccc2)N(Cc2ccccc2)C1=O)c1ccc(F)cc1 (stereo not drawn) -7.38%
Cc1cc(-c2ccc(C)c(S(=O)(=O)Nc3ccc(C)c(N(C)C)c3)c2)on1 -12.7%
CCOc1ccc(CCNC(=O)c2cc3n(n2)CCCN(Cc2ccc(C)cc2)C3=O)cc1OCC 0.193%
CCOc1ccc(C(=O)c2cn(CC(=O)Nc3ccc(C)c(Cl)c3)c3ccc(OCC)cc3c2=O)cc1 -13.8%
COc1cc(NC(=O)COCc2cc(-c3ccc4c(c3)OCO4)on2)c(OC)cc1Cl -15%
O=C(CS(=O)(=O)c1cccc2nsnc12)N1CCN(c2ccc(F)cc2)CC1 -12.2%
CC(=O)c1ccc(NC(=O)Cn2c(=O)nc(-c3ccccc3)c3ccccc32)cc1 -8.3%
CCCCN(CC)CCCNC(=O)c1ccc2c(c1)N(Cc1ccc(C)cc1)C(=O)c1ccccc1S2 -6.27%
CCCCC(=O)OCc1cc(=O)n2nc(C3CC3)sc2n1 2.04%
Cn1cnc(S(=O)(=O)N2CCC(C(=O)Nc3ccc(OC(F)(F)F)cc3)CC2)c1 -17.6%
CC1CCN(S(=O)(=O)c2ccc3c(c2)N(CC(=O)N(C)Cc2ccccc2)C(=O)CO3)CC1 -12.4%
CCN(CC)c1cc(NC2CCCCC2)c2c3c(onc13)-c1ccccc1C2=O -8.22%
O=C(CCCc1nc(-c2ccc(Cl)cc2)no1)NCc1ccco1 -9.46%
COc1cc(C2c3c(-c4ccccc4O)n[nH]c3C(=O)N2Cc2ccncc2)cc(OC)c1OC (stereo not drawn) -26.5%
CCCCN1C(C(=O)c2ccccc2)=C(OC(=O)CC)c2ccccc2S1(=O)=O -11.7%
O=c1c2sc3ccccc3c2n(Cc2cccc(Cl)c2)c(=O)n1Cc1ccc(F)cc1 -12.8%
Cc1ccccc1CN1C(=O)C(O)(c2c[nH]c3ccccc23)c2cc(Cl)ccc21 (stereo not drawn) -14.6%
COc1cccc(CNC(=O)C2CCCN(c3nn4cc(-c5ccc(C)cc5)nc4s3)C2)c1 (stereo not drawn) -10.9%
Cc1cc(C)c(NC(=O)Cn2nnc3sc4c(c3c2=O)CCC(C(C)(C)C)C4)c(C)c1 (stereo not drawn) -1.21%
O=C(c1ccc2c(c1)N(Cc1ccccc1)C(=O)c1ccccc1S2(=O)=O)N1CCC(Cc2ccccc2)CC1 -6.81%
O=C(NCc1ccc(Cl)cc1)c1cc2cccc3c2n1CCS3 -4.7%
CC1CCCN(C(=O)c2ccc(CSc3nc4ccncc4n3Cc3ccccc3)cc2)C1 (stereo not drawn) -5.4%
CCc1cc(C(=O)N2CCN(c3ccccc3)CC2)no1 -17.6%
COc1ccc(CNC(=O)C2CCN(C(=O)N3CCOc4ccc(C)cc43)CC2)cc1 1.09%
COC(=O)c1sccc1S(=O)(=O)N(CC(=O)NCc1ccc(F)cc1)c1ccccc1 -8.37%
Cc1cccc(NC(=O)Cn2c(=O)n(Cc3nc(-c4ccccc4)no3)c(=O)c3ccccc32)c1 -16.7%
COc1ccccc1N1CCN(c2c3c(nc4nncn24)CCC3)CC1 5.31%
CC(C)(C)NC(=O)Cn1cc(S(=O)(=O)Cc2ccccc2Cl)c2ccccc21 -10.3%
Cc1cccc(-n2c(=O)c3c(c4cc(C)ccc4n3C)n(CC(=O)Nc3ccc(C)c(C)c3)c2=O)c1 -0.717%
C#CCN(C)CCCOc1ccc(Cl)cc1Cl -5.04%
COc1ccc(-c2nc(SCC(=O)NCC3CCCO3)c(-c3ccc(C)cc3)[nH]2)cc1OC (stereo not drawn) -17.9%
COc1ccc(C)cc1NS(=O)(=O)c1ccc2c(c1)CCCN2C(C)=O -16.9%
O=C(O)CN(CCN(CC(=O)O)CC(=O)O)CCN(CC(=O)O)CC(=O)O -10.1% [at 23.8 µM]
Cc1ccc(N(C)S(=O)(=O)c2nnc(NC(=O)c3ccco3)s2)cc1 0.892%
COc1ccc(-c2c(C#N)c(SCC(=O)Nc3ccc(C)c(C)c3)nc(C)c2C(=O)Nc2ccccc2)cc1OC -2.47%
COc1ccc(NC(=O)N2CCN(Cc3nc4ccc(C)cc4o3)CC2)cc1OC -17.4%
CCCCNC(=O)CN1CCN(c2ccc(NC(=O)c3ccc(OC)cc3)cc2C(=O)O)CC1 -0.998%
